T1: UNK ZnF1-3 (human, UniProt Q9C0B0 31-174)
T1 sequence: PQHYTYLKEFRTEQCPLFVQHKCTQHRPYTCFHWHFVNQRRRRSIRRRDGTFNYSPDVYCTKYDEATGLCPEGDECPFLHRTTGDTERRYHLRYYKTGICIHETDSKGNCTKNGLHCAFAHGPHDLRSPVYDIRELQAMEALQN

B1: 33028138_33033104_1131_CDS_ENSG00000078747_ENST00000374864|human|control|control (ssRNA)
RNA: GGGAGUUCUACAGUCCGACGAUCCCGCCGUUCCCAGCCAGGAGGUAGAGGUUCUGGUCUAUCCCAUGUUGUUCUUUUCUCAACAUGAUCUACAUAGUAAACUCGCCCGUGCUGGUCCACUCUCUGCUCCCAACCAGGUGGCAACAACAGAGGAUUGAGCAUCA
B2: chr11:122931392:122931393:-_ENSG00000109971_ENST00000227378|hu_hu|motif|central (ssRNA)
RNA: GGGAGUUCUACAGUCCGACGAUCUGUCAGAACCAUAGAAGACACCUCCUCUGGAUAGAAGCUUUUGGUCUCUCCCUUGUAUUCGGCUUGGACCUUGGGCCUGCCAGCAUCAUUCACCACCAUAAAGGGCCAAUGUUUCAUAUCCAACAGAGGAUUGAGCAUCA
B3: chr2:202488911:202488912:-_ENSG00000155755_ENST00000286196|hu_mus|hu_hu_hu_mus_False|8_28 (ssRNA)
RNA: GGGAGUUCUACAGUCCGACGAUCAUUGAAACAUUUUUCAUAAUCUCCAGUAGCAUUUCAGCAUUAUGUAACAAAAGCUCAAUUGUAAAUACAUGUAUCUUAUAAAAAUAAAAAUACAAACACGAGUAAAAAUGGGAGGCGCCACAACAGAGGAUUGAGCAUCA
B4: chr17:27085315:27085316:-_ENSG00000173065_ENST00000581407|hu_hu|FALSE|FALSE (ssRNA)
RNA: GGGAGUUCUACAGUCCGACGAUCACCUAGGAGGGUGAUGUAUGAUGUGUUGCACGUGGAGGGCAGCAGGGCUACCUAUCUAUACCCUGGGUGCUGAAUAUGAAGACUUCGACUCUCUGUGGGAUCGGGGGCUCGGUUGCCAGGCAACAGAGGAUUGAGCAUCA
B5: chr19:33076771:33076772:+_ENSG00000105185_ENST00000590247|hu_mus|FALSE|FALSE (ssRNA)
RNA: GGGAGUUCUACAGUCCGACGAUCCGCCAUCUGUAUAAGGUAGUUCUCCACUGCUUUAGUUUUUUCAGGCUUUACAAGUGCUAAGUUACUUAAUCUGGCCCGGGCUGACUGAUCCAGAACUUGGGCUAAGAUACUGUUUCUCAUCAACAGAGGAUUGAGCAUCA
B6: chr17:66526506:66526507:+_ENSG00000108946_ENST00000358598|hu_hu|FALSE|FALSE (ssRNA)
RNA: GGGAGUUCUACAGUCCGACGAUCGUACUGCUGGAUGUUUCGUUUGAGGAUGUCUGAGCAUGGGCCAAGAACACGUUCAAAUCUAGGUCGGUCCAGCUUAACGCACUUCAAGGGGCCACGAGCAACAACUGUGGCAGCACGAGGCAACAGAGGAUUGAGCAUCA

The list shows a part of the results.

The experiment deals with T1, UNK ZnF1-3. The experiment in a line: nsRBNS (natural sequence RNA bind-n-seq); RBNS binding buffer (assumed for nsRBNS): 25 mM Tris pH 7.5, 150 mM KCl, 3 mM MgCl2, 0.01% Triton X-100, 500 ug/ml BSA, 20 U/ml SUPERase-In, 4 C; UNK is unkempt and MSI1 is Musashi-1; names of the RNAs are library labels; protein concentration not given here; high values mean tight binding.
B1 registered a binding signal of 0.755 enrichment R. In the case of B2 it was 1.19 enrichment R; in that of B3, 1.68 enrichment R; in that of B4, 1.03 enrichment R. B5: the binding signal turned out to be 0.563 enrichment R. In the case of B6 it was 1.88 enrichment R.

(Values after article PMC12136788.)
